Assay results published in the supplement of paper PMC10126150.
Values marked as one replicate rest on one cluster of the flow cell; about a third of the high ones do not repeat.

Tested on: ATP
Assay: switch fluorescence ratio, 500 uM ATP over buffer (Cy3 cluster intensity, sum of 5 cycles each) (fold (ratio)); higher = stronger signal-on switching upon ATP binding; sequences stand for … in TCGTCGGCAGCGTCAGATGTGTATAAGAGACAGTTTTTTTTTTTTTTTTTTTTTTTTT…TC
Details: aptamer strand: ATP DNA aptamer (quencher-CACCTGGGGGAGTATTGCGGAGGAAGG + anchor), 100 nM annealed; ATP concentration: 500 uM; one replicate
Method in brief: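 Between each of five buffer/ATP cycles, the flow-cell was stripped with NaOH and re-annealed. Each cycle imaged Cy3-labelled switching-strand clusters, annealed to 100 nM quencher-labelled ATP aptamer on a modified Illumina MiSeq flow-cell, first in selection buffer and then after 15 min with 500 uM ATP at 22 °C. The fluorescence ratio is summed target-cycle over summed buffer-cycle Cy3 intensity per cluster, averaged per switch-domain sequence, with clusters outside 100-1000 RFU excluded.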
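Note: ATP exposure 15 min at 22 °C before imaging.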

Sequence | switch fluorescence ratio
CACGTCAGTT | 1.07
CACGTGAGAA | 0.983
CACGTGTAAT | 1.02
CACGTGTAGG | 1.04
CACGTTGCAA | 0.953
CACGTTTCGA | 0.972
CACTACCGCC | 1.22
CACTAGGCAA | 1.09
CACTAGGGA | 1.01
CACTAGTTGC | 1.01
CACTATGTAT | 0.977
CACTATTCAC | 1.11
CACTCACATC | 1.29
CACTCAGTGG | 1.04
CACTGAAGAG | 0.989
CACTGAGTT | 1.07
CACTGATGGT | 1
CACTGCAACT | 1.69
CACTGCTACT | 1.16
CACTGGGCTG | 0.952
CACTTAACAT | 1.14
CACTTCCAGC | 1.17
CACTTCTTTC | 0.986
CACTTGATCT | 1.02
CACTTGCTCG | 1.05

Sequence | switch fluorescence ratio
CACTTTTCGT | 0.969
CACTTTTGTC | 1.07
CAGAAACGTA | 1.02
CAGAAAGCGT | 1.02
CAGAAAGTTC | 1.08
CAGAACATCG | 1.03
CAGAACCACT | 1.03
CAGAACCGGC | 1.03
CAGAACGAGC | 0.965
CAGAAGAGTA | 1.01
CAGAAGAGTG | 0.915
CAGAATGAAA | 1.01
CAGAATTTTC | 0.968
CAGACATGGC | 1.12
CAGACATTAC | 1.6
CAGACCAACC | 1.19
CAGACCGCGC | 1.38
CAGACCTTTG | 1.01
CAGACGGGAA | 1.15
CAGACGGGTG | 1.02
CAGACGGTTA | 1.09
CAGACTGTTT | 0.992
CAGAGACAGC | 0.994
CAGAGATAAC | 1.03
CAGAGGATTA | 1

Sequence | switch fluorescence ratio
CAGAGTGTAT | 1.02
CAGATGAAA | 1.01
CAGATGATTT | 0.943
CAGATGGCGT | 1.01
CAGATGTATA | 1.05
CAGCAACAGG | 1.2
CAGCAATTTC | 3.43
CAGCACTAGT | 1.02
CAGCACTTCG | 0.991
CAGCATAATC | 2.49
CAGCATGGGA | 1.06
CAGCCATAGA | 0.976
CAGCCCCGGA | 0.965
CAGCCCTGCG | 0.905
CAGCCGCCCG | 1.22
CAGCCGCTCG | 1.23
CAGCGAAGGC | 1
CAGCGATCGG | 1.03
CAGCGCAGCC | 0.998
CAGCGCTAAG | 0.981
CAGCGTAGGG | 1.02
CAGCGTATA | 1.04
CAGCGTCTGT | 1.03
CAGCTAAGCA | 1.01
CAGCTATCGT | 0.99

Sequence | switch fluorescence ratio
CAGCTCGAC | 1.47
CAGCTGACGG | 1.01
CAGCTTAGGC | 0.985
CAGGACACAT | 1.02
CAGGACCCAG | 0.984
CAGGACTGTA | 1.05
CAGGAGTTTT | 1
CAGGATGAGG | 0.975
CAGGCAAATT | 1.33
CAGGCACGTT | 0.976
CAGGCCCAGC | 0.983
CAGGCCCCGC | 1.01
CAGGCCTCAC | 1.09
CAGGCGAGCA | 0.955
CAGGCGGTAT | 1.01
CAGGCTAATG | 1
CAGGCTATGT | 0.976
CAGGCTCCCG | 1.01
CAGGCTTGCT | 1
CAGGGACTCC | 0.969
CAGGGAGTCC | 1.01
CAGGGATCAG | 1.02
CAGGGCCGTG | 1.02
CAGGGCTTGT | 1.01
CAGGGGAGAC | 0.988

Sequence | switch fluorescence ratio
CAGGGGGAC | 1.07
CAGGGGGTTC | 0.988
CAGGGGTATG | 1.03
CAGGGTAAGA | 0.989
CAGGGTAAGG | 0.981
CAGGGTCGCT | 0.998
CAGGGTGTTT | 1
CAGGTAATGC | 1.52
CAGGTATCCG | 1.05
CAGGTGCTAA | 1.19
CAGGTGGGCT | 1.34
CAGGTGTTT | 1.94
CAGGTTCATT | 1.01
CAGGTTTCAT | 1.05
CAGTAAAATA | 0.978
CAGTAAGCCT | 1.02
CAGTAAGGTT | 0.969
CAGTAAGTTC | 1.06
CAGTAATGTG | 1.01
CAGTACGTTA | 1.15
CAGTAGCGT | 0.969
CAGTAGGGG | 0.949
CAGTCACTCC | 1.15
CAGTCAGTTG | 1.03
CAGTCCAAGT | 0.951

Sequence | switch fluorescence ratio
CAGTCCAGT | 0.953
CAGTCGAATG | 0.989
CAGTCTACCA | 1.04
CAGTCTCATT | 1.02
CAGTCTCGGA | 0.955
CAGTGATCCG | 0.867
CAGTGATGGG | 1.03
CAGTGCTGTG | 0.987
CAGTTATGTA | 1
CAGTTCATGG | 0.976
CAGTTGCCGC | 0.971
CAGTTGGTGT | 0.985
CAGTTTACAA | 1.03
CAGTTTAGCA | 1.04
CAGTTTCGCT | 1.02
CAGTTTGGTG | 0.962
CAGTTTTTG | 0.967
CATAACAACG | 1.02
CATAACATGA | 0.959
CATAAGAATC | 0.976
CATAAGCCAT | 0.998
CATAATGTTA | 0.989
CATACAAGAA | 0.986
CATACCCCCG | 1.55
CATACCGTTA | 1.06

Sequence | switch fluorescence ratio
CATACCTCAA | 1.15
CATACGCCTC | 3.74
CATACTAGGT | 1.02
CATACTTTAC | 1.38
CATAGAGGCT | 1.03
CATAGAGGGA | 1.01
CATAGATG | 0.985
CATAGGAGAA | 0.94
CATAGGATCA | 1.02
CATAGGCATC | 1.07
CATAGGGAAG | 0.948
CATAGGGATT | 1.01
CATAGGTGGT | 0.975
CATAGTAGAC | 1.12
CATAGTTCAT | 1.23
CATATAGCCC | 0.982
CATATAGCGG | 0.989
CATATAGTCA | 1.01
CATATATCTT | 0.948
CATATCGACG | 1.04
CATATGGCCC | 0.989
CATATTCCCC | 0.992
CATATTCGCC | 0.996
CATATTGTTT | 0.992
CATATTTGGT | 0.976

Sequence | switch fluorescence ratio
CATATTTTAT | 0.995
CATCACTGTT | 1.01
CATCAGGGTA | 0.987
CATCATAAGT | 0.992
CATCCAACGT | 1.04
CATCCAGTCG | 1.1
CATCCCCTTG | 1.08
CATCCGGAAG | 2.68
CATCCTATGT | 0.997
CATCCTCGTT | 1.08
CATCCTGCAG | 3.15
CATCCTTGTT | 1
CATCGACGAG | 1.05
CATCGATGGG | 1.01
CATCGATTCG | 1
CATCGGGCG | 1.01
CATCGGGTCA | 0.988
CATCGGTCTC | 1.01
CATCGTCCAC | 1.07
CATCGTGCAT | 1.32
CATCGTTTTC | 0.982
CATCTAGTTT | 0.998
CATCTTGAC | 1.01
CATCTTTGGC | 0.987
CATGAAGCGC | 1.04
